According to article PMC3903633:
Results are given in words; binding and its absence hold for the method and conditions named. For part of these data: Binding seen in cells or lysates may run through a third protein. Some results given as binding are weak or reduced against the parent protein; the word gives no strength. Tags and fused reporters may be left off the sequences shown. One block for each binder: values may come before it.

What was measured:
[1] = target: T1, PCC1 fused to HA, GFP or c-myc tags (Arabidopsis thaliana) (UniProt Q94C26); test: co-IP; Nicotiana benthamiana leaves co-transformed with PCC1-HA and GFP- or c-myc-tagged constructs; total protein extracts in TBS with protease inhibitors and detergent; IP with anti-HA magnetic beads, Western blot with anti-GFP or anti-c-myc
T1 sequence: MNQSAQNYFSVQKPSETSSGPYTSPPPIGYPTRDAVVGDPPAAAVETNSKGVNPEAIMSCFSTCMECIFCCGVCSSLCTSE

[2] = target: Pathogen and Circadian Controlled 1 (PCC1) fused to the activation domain or to the DNA binding domain of GAL4 (Arabidopsis thaliana) (UniProt Q94C26); test: two-hybrid; AD and BD fusions of GAL4 (pPC86, pDBLeu) in S. cerevisiae Mav203; growth in minimal medium -Leu -Trp -His
[3] = target: T2, GFP-Δ177PCC1, truncated PCC1 lacking the C-terminus, fused to GFP (Arabidopsis thaliana) (UniProt Q94C26); test: co-IP; reverse IP: Nicotiana benthamiana leaves co-transformed with PCC1-HA and GFP-tagged constructs; IP with anti-GFP magnetic beads, Western blot with anti-HA
T2 sequence: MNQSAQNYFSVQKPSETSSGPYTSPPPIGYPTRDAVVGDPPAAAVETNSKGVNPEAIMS

[4] = target: T1, PCC1 fused to HA, GFP or c-myc tags (Arabidopsis thaliana); test: as above
[5] = target: T3, PCC1 fused to the C-terminal or the N-terminal half of YFP (Arabidopsis thaliana) (UniProt Q94C26); test: split reporter; BiFC: pairs of proteins each fused to half of YFP (pYFC43, pYFN43), transient co-transformation of Nicotiana benthamiana leaves by agroinfiltration; confocal microscopy
T3 sequence: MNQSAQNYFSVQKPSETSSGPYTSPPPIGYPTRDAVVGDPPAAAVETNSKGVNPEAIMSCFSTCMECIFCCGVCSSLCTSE

binding [1]: no binding
B1: GFP-Δ177PCC1, truncated PCC1 lacking the C-terminus, fused to GFP (domain or fragment, UniProt Q94C26 1-59)
chain: MNQSAQNYFSVQKPSETSSGPYTSPPPIGYPTRDAVVGDPPAAAVETNSKGVNPEAIMS

binding [2]: binds
B2: Pathogen and Circadian Controlled 1 (PCC1) fused to the activation domain or to the DNA binding domain of GAL4 (protein, UniProt Q94C26 1-81)
chain: MNQSAQNYFSVQKPSETSSGPYTSPPPIGYPTRDAVVGDPPAAAVETNSKGVNPEAIMSCFSTCMECIFCCGVCSSLCTSE

binding [3]: no binding
binding [4]: binds
binding [1]: binds
B3: PCC1 fused to HA, GFP or c-myc tags (protein, UniProt Q94C26 1-81)
chain: MNQSAQNYFSVQKPSETSSGPYTSPPPIGYPTRDAVVGDPPAAAVETNSKGVNPEAIMSCFSTCMECIFCCGVCSSLCTSE

binding [5]: binds
B4: PCC1 fused to the C-terminal or the N-terminal half of YFP (protein, UniProt Q94C26 1-81)
chain: MNQSAQNYFSVQKPSETSSGPYTSPPPIGYPTRDAVVGDPPAAAVETNSKGVNPEAIMSCFSTCMECIFCCGVCSSLCTSE
